Our source for the survival values is PubChem BioAssay AID463173 (ICCB-Longwood Screening Facility, Harvard Medical School, 2010).

Screen size: about 52,000 compounds; about 1,700 (3.3%) were called active. No stated cut-off is given here; in the data, active means survival mostly below about 52% (no sharp cut-off); inactive means mostly above about 56%. This is one part of the list.

The test system of the experiment is Wild type. In words: growth inhibition of S. aureus wild type versus tarO mutant, primary screen, teichoic acid synthesis inhibitors, RN4220, OD600 (AID 463173). The following applies: S. aureus RN4220 wild type/DeltatarO growth, OD600, 18 h, active compounds read low, screened at 18.75 µg/mL (by protocol).
In the case of `CC(=O)Nc1ccccc1-c1nc2ccccc2n(CC(=O)Nc2ccc(C)c(Cl)c2)c1=O`, the survival is inactive: 103%.

Regarding `COc1ccc(CCn2c(=O)c3ccccc3n(CC(=O)Nc3cccc(C)c3)c2=O)cc1OC`, the survival is inactive: 89%.

Consider `Cc1oc(-c2ccccc2F)nc1CS(=O)(=O)CC(=O)N1CCN(c2ccc(Cl)cc2)CC1`, for which the survival is inactive: 53%.

Take `CCn1c(SC)nnc1C1CCCN(C(=O)c2ccccc2-c2ccccc2)C1` (centres undefined): the survival was inactive: 120%.

As for `Cc1ccc(S(=O)Cc2ccc(C(=O)NC3CCCCCC3)o2)cc1` (centres undefined), the survival was inactive: 146%.

In the case of `Cc1ccc(NC(=O)CSc2nc3c(c(=O)[nH]2)CCC3)cc1Cl`, the survival was inactive: 77%.

Take `Cc1[nH]c2ccc(C(=O)Nc3ccc(F)cc3)cc2c1C`: the survival was inactive: 140%.

For `Cc1ccccc1CN1C(=O)c2ccccc2S(=O)c2ccc(C(=O)NCc3ccco3)cc21` (centres undefined), the survival is inactive: 96%.

As to `CCN(C(=O)CCS(=O)(=O)c1ccc2c(c1)oc(=O)n2C)c1ccc(OC)cc1`, the survival was inactive: 70%.

`Clc1ccccc1C(c1nnnn1Cc1ccco1)N1CCN(Cc2ccco2)CC1` (centres undefined): the survival was inactive: 111%.

As for `Cn1c(=O)c2ccccc2n(CC(N)=O)c1=O`, the survival is inactive: 109%.

As for `CCS(=O)(=O)N1CCC2(CC1)OC(=O)C(C)=C2C(=O)NCc1cccc(Cl)c1`, the survival is inactive: 49%.

Consider `O=S(=O)(c1ccc(Br)cc1)c1nc(-c2cccs2)oc1SCc1ccc(F)cc1`, for which the survival is inactive: 67%.

Regarding `Cc1ccc(-c2nc(CN(C)C)cc(CN(C)C)c2O)cc1`, the survival was inactive: 121%.

For the compound `Cc1ccccc1NS(=O)(=O)c1ccc2c(c1)NC(=O)CCS2`, the survival is inactive: 57%.

As for `Cc1ccc(C)c(N2CCN(C(=O)C3CCN(C(=O)c4cc5sccc5n4C)CC3)CC2)c1`, the survival was inactive: 54%.

With `C=CCN1C(=O)C2C(C(=O)NC3CCCCC3C)C3(C)C=CC2(O3)C1C(=O)NC(C)(C)C` (centres undefined), the survival is inactive: 105%.

`COc1cc2c(cc1NC(=O)COc1ccc(Br)cc1C)oc1ccccc12`: the survival was inactive: 141%.

Turning to `CC(C)CCNC(=O)CCC(=O)N1Cc2ccccc2Oc2ncccc21`, the survival was inactive: 65%.

Consider `CCn1c(SCC(=O)Nc2ccccc2)nc2c([nH]c3ccccc32)c1=O`, for which the survival was inactive: 81%.

For the compound `COc1ccc(NC(=O)CCCSc2nc(-c3ccco3)cc(C(F)(F)F)n2)cc1`, the survival was inactive: 99%.

Take `Cc1cc2c(cc1S(=O)(=O)NCc1ccccc1)OCC(=O)N2`: the survival is inactive: 92%.

For the compound `COc1ccccc1C(=O)Nc1c(C(=O)N2CCN(c3ccccc3F)CC2)oc2ccccc12`, the survival is inactive: 101%.

For `Cc1ccc(CNC(=O)c2ccc3c(c2)NC(=O)C(CS(=O)(=O)Cc2ccc(F)cc2)N3)cc1` (centres undefined), the survival is inactive: 68%.

Regarding `CCN(CC)S(=O)(=O)c1ccc(-c2nnc(SCC(=O)N3CCCC3)n2CC)cc1`, the survival was inactive: 110%.

As for `CN(C)c1cccc(C(=O)Nc2nc3ccc(S(=O)(=O)NC(C)(C)C)cc3s2)c1`, the survival is inactive: 60%.

In the case of `O=C(c1ccccc1)c1ccc2nc(N3CCN(c4ccccc4)CC3)c3nncn3c2c1`, the survival was inactive: 84%.

As to `Cc1nc2ccc(S(=O)(=O)CCC(=O)Nc3ccc(C(C)C)cc3)cc2s1`, the survival is inactive: 87%.

For the compound `CC(C)(C)c1ccc(C(=O)Nc2ccc(C(=O)OCc3cc(=O)n4ccsc4n3)cc2)cc1`, the survival is inactive: 80%.

For the compound `CCc1ccc(C(c2c(C)[nH][nH]c2=O)C(C#N)C#N)cc1` (centres undefined), the survival is inactive: 91%.

As for `CCC1CCCCN1CCCNC(=O)c1cn(CC)c2ccc(S(=O)(=O)N(C)C3CCCCC3)cc2c1=O` (centres undefined), the survival is inactive: 87%.

On to `Cc1cc(C)cc(Nc2nc3ccccc3nc2-n2nc(C)cc2C)c1`, for which the survival was active: 8%.

As to `CCOC(=O)N1CCc2c(sc3c2c(=O)n(Cc2ccccc2)c(=O)n3CC(=O)Nc2cccc(C)c2)C1`, the survival is inactive: 84%.

Consider `COC(=O)c1sc(-c2ccccc2)cc1NC(=O)Nc1ccccc1Cl`, for which the survival is active: 5%.

As to `Cc1ccc(CNC(=O)C2(c3cccs3)CCOCC2)cc1`, the survival was inactive: 69%.

On to `Cn1c(=O)n(C)c2cc(/C=N/NC(N)=S)ccc21`, for which the survival was inactive: 92%.

With `COc1ccc(-c2cn3c(n2)sc2cc(C(=O)Nc4c(C)cccc4C)ccc23)cc1`, the survival is inactive: 83%.

In the case of `Cc1cc2cc3c(cc2nc1SCC(=O)N1CCCC1)OCCO3`, the survival is inactive: 105%.

Turning to `CCCCC(=O)Nc1cc(-c2nc3cccnc3s2)ccc1C`, the survival is inactive: 72%.

On to `CN(C)N=Nc1ccc(Oc2ccccc2)cc1`, for which the survival was inactive: 115%.

Turning to `CCc1ccc(NC(=O)c2cc3c(COC(C)=O)cnc(C)c3oc2=O)cc1`, the survival is inactive: 120%.

With `CCOc1ccc(NC(=O)CSc2ncnc3c2sc2ccccc23)cc1`, the survival is inactive: 71%.

Turning to `CN(C)S(=O)(=O)c1ccc(C(=O)Nc2c(C(=O)Nc3ccc(F)cc3)oc3ccccc23)cc1`, the survival was inactive: 88%.

With `COc1ccc(C(=O)n2nc(-c3ccc(Cl)cc3)nc2NCc2ccco2)cc1`, the survival was inactive: 99%.

For the compound `Cn1c(=O)oc2cc(S(=O)(=O)N3CCCC(C(=O)NCc4ccccc4Cl)C3)ccc21` (centres undefined), the survival is inactive: 96%.

On to `COc1ccc(NC(=O)Cn2c(=O)oc3cc(Cl)ccc32)c(OC)c1`, for which the survival was inactive: 63%.

As for `CNC(=O)C1CCC(Cn2c(=O)c3sccc3n(CC(=O)NCc3ccc(C)cc3)c2=O)CC1` (centres undefined), the survival is inactive: 73%.

In the case of `Cc1cc(C)c2c(n1)SCC(=O)N2CC(=O)Nc1ccccc1C`, the survival was inactive: 77%.

As for `Cc1ccc(C)c(NC(=O)CCCn2c(C)c3cnn(-c4ccccc4)c(=O)c3c2C)c1`, the survival is inactive: 83%.

As to `CCc1ccc(NC(=O)CSc2nc(C)c(C(=O)Nc3ccc(Cl)cc3)c(-c3ccc(OC)cc3)c2C#N)cc1`, the survival was inactive: 94%.

Take `Nc1ccc(N2CCOCC2)c2nonc12`: the survival was inactive: 106%.

Consider `Cc1cc(=O)oc2cc(OCC(=O)N(C)C)c(Cl)cc12`, for which the survival is inactive: 109%.

Take `O=C(CSc1nc2c([nH]c3ccccc32)c(=O)n1-c1ccc(F)cc1)NCC1CCCO1` (centres undefined): the survival was inactive: 70%.

With `Cc1ccc(C2C(=O)N(C3CCCCCC3)CC(=O)N2C(C)C)cc1` (centres undefined), the survival was inactive: 71%.

As to `Cc1ccccc1C(=O)Nc1sc2c(c1C(=O)O)CCC(C(C)(C)C)C2` (centres undefined), the survival was active: 6%.

Take `O=C(CSc1nc2c([nH]c3ccccc32)c(=O)n1-c1ccccc1)N1CCCc2ccccc21`: the survival is inactive: 128%.

As for `COc1ccc(NC(=O)Cn2nc3c(cc2=O)CCCC3)cc1Cl`, the survival was inactive: 95%.

In the case of `CCCCc1nn2c(=O)cc(CN(CC)c3ccccc3)nc2s1`, the survival was inactive: 89%.

As to `COc1cccc(C(=O)c2cn(CC(=O)Nc3cc(Cl)c(OC)cc3OC)c3nc(C)ccc3c2=O)c1`, the survival was inactive: 136%.

In the case of `O=C(CSc1ccccc1)N1CCc2c([nH]c3ccccc23)C1c1ccc(Cl)cc1` (centres undefined), the survival is inactive: 64%.

Consider `Cc1cccc(NC(=O)c2cc(CN3CCOCC3)on2)c1C`, for which the survival was inactive: 68%.

On to `Cc1cccc(S(=O)(=O)c2cn(C)c3cc(N4CCCCCC4)c(F)cc3c2=O)c1`, for which the survival is inactive: 55%.

As for `O=C(NCc1ccc(Cl)cc1)c1cc2ccc3cccnc3c2[nH]1`, the survival is inactive: 49%.

Regarding `COc1ccccc1N1CCN(S(=O)(=O)c2ccc(-c3ccno3)cc2OC)CC1`, the survival is inactive: 82%.

As for `Cc1ccc(NC(=O)NCCOCCn2c(=O)oc3ccccc32)c(C)c1`, the survival was inactive: 88%.

Regarding `CC(C)c1ccc(Cc2cn3cc(-c4cc5ccccc5oc4=O)nc3s2)cc1`, the survival is inactive: 64%.

Regarding `COc1cccc(-n2c(SCC(=O)Nc3cccc(C)c3)nc3c([nH]c4ccccc43)c2=O)c1`, the survival is inactive: 80%.

Regarding `Cc1nc(N2CCCC2)ncc1C(=O)NCc1ccc(Cl)cc1`, the survival was inactive: 80%.

With `CC1=C(c2ccc(F)cc2)S(=O)(=O)N=C1N1CCC(C(=O)NCCc2ccccc2)CC1`, the survival is inactive: 77%.

`COc1ccc(OC)c(C2=NS(=O)(=O)N(C)C(C(=O)Nc3ccc(C(C)=O)cc3)=C2)c1`: the survival was inactive: 81%.

Turning to `Cc1ccccc1C(=O)NC1CCN(CC(=O)NC2CCCCC2)CC1`, the survival was inactive: 98%.

For the compound `O=C(Cn1nnc(-c2cccnc2)n1)N(c1ccccc1)c1ccccc1`, the survival was inactive: 101%.

On to `COc1cc(CN(C(=O)COc2ccc(Cl)cc2)c2ccccn2)cc(OC)c1OC`, for which the survival is inactive: 104%.

For the compound `Cc1ccc(C)c(NC(=O)C2CCN(c3ncnc4c3nc3n4CCCCC3)CC2)c1`, the survival is inactive: 81%.

Turning to `CC(C)(C)c1ccc(C(=O)NNc2ncnc3c2cnn3-c2ccc(Cl)cc2)cc1`, the survival was inactive: 94%.

Take `Cc1cccc(C)c1NC(=O)NCCCN1CCN(c2ccccc2)CC1`: the survival was inactive: 159%.

For `CCc1ccc2occ(CC(=O)Nc3nnc(C)s3)c2c1`, the survival is inactive: 98%.

On to `CCNC(=O)C1CCN(c2nc3ccccc3nc2C(F)(F)F)CC1`, for which the survival was inactive: 148%.

On to `O=C(CSc1nc2c([nH]c3ccccc32)c(=O)n1-c1ccccc1)NCc1ccc(F)cc1`, for which the survival is inactive: 87%.

For `CCc1ccccc1NC(=O)CC(C)S(=O)(=O)c1ccc2c(c1)NC(=O)CO2` (centres undefined), the survival was inactive: 59%.

With `COc1ccccc1-c1cc(-c2ccc(O)cc2)nc(N)c1C#N`, the survival is inactive: 69%.

For the compound `CC(=O)c1nn(-c2ccc(OC(F)(F)F)cc2)nc1Nc1ccc(Cl)cc1`, the survival was inactive: 88%.

On to `CCOc1ccc(NC(=O)Cn2cc(S(=O)(=O)c3ccc(C)cc3)c(=O)c3cc(F)ccc32)cc1`, for which the survival was inactive: 64%.

Take `O=C(CN1C(=O)C2(SCC(=O)N2c2ccccc2)c2ccccc21)Nc1ccccc1C(F)(F)F` (centres undefined): the survival is inactive: 140%.

As to `COc1ccc(C(=O)c2cnc3ccc(C)cc3c2S(=O)(=O)c2ccccc2)cc1`, the survival is inactive: 79%.

On to `COc1ccc(S(=O)(=O)N2CCC(C(=O)NC(C)c3ccccc3)CC2)cc1` (centres undefined), for which the survival is inactive: 83%.

Regarding `CCOC(=O)C1CCCN(C(=O)Cn2c(=O)cc(C)c3c(C)nn(C)c32)C1` (centres undefined), the survival was inactive: 72%.

As to `Cc1ccc(CN2C(=O)C(O)(CC(=O)c3ccc(C)cc3)c3ccccc32)cc1` (centres undefined), the survival is inactive: 66%.

Consider `O=c1sc2ccccc2c2nc[nH]c12`, for which the survival was inactive: 98%.
